Laboratory results published in the BET-seq Pho4 binding data (Le et al. 2018).
This is one part of the list. These are noisy estimates, calculated here from bound and input reads.

target: T1, Pho4 (S. cerevisiae) (UniProt P07270); test: relative binding free energy (BET-seq); higher = weaker binding; conditions: reference: library average
T1 sequence: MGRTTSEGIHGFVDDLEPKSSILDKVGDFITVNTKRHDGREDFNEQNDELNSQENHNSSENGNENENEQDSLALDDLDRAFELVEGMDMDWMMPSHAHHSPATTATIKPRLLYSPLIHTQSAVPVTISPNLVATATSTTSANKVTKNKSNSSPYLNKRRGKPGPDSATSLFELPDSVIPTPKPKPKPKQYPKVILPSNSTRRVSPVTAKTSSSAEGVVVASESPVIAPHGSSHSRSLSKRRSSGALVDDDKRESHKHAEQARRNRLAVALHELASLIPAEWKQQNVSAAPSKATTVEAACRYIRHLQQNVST

| Sequence | relative binding free energy |
| --- | --- |
| TAGGTCACGTGGGATG | 0.03 kcal/mol |
| GCTCGCACGTGGGAGG | -0.15 kcal/mol |
| TTTTGCACGTGAATGG | 0.31 kcal/mol |
| GGTTGCACGTGGTTTA | 0.08 kcal/mol |
| AGATACACGTGGTGCT | 0.06 kcal/mol |
| TTGGACACGTGTAGAT | 0.27 kcal/mol |
| TGATTCACGTGTGATC | 0.27 kcal/mol |
| GGGTGCACGTGTGTGG | 0.03 kcal/mol |
| TTCTGCACGTGAGTAG | 0.21 kcal/mol |
| AGGCACACGTGGTTGG | -0.01 kcal/mol |
| TGTGGCACGTGCGGTT | -0.09 kcal/mol |
| TGAGGCACGTGCTTGC | 0 kcal/mol |
| TGACTCACGTGTGTAG | 0.18 kcal/mol |
| GGTGCCACGTGGTCGT | -0.24 kcal/mol |
| GTAGCCACGTGTATGG | -0.07 kcal/mol |
| GTCGGCACGTGTATTG | 0.05 kcal/mol |
| GATTTCACGTGATGGC | 0.44 kcal/mol |
| AGTGGCACGTGGAAAG | -0.01 kcal/mol |
| AATGCCACGTGGTTTT | -0.15 kcal/mol |
| GCGGTCACGTGTAGAG | 0.13 kcal/mol |
| GATAGCACGTGAGTGT | 0.26 kcal/mol |
| AGTGGCACGTGGTGGC | -0.1 kcal/mol |
| AGGAGCACGTGGTGTC | -0.19 kcal/mol |

| Sequence | relative binding free energy |
| --- | --- |
| TGATTCACGTGTTGTT | 0.26 kcal/mol |
| GGGTTCACGTGGGAAG | 0.31 kcal/mol |
| GTGCGCACGTGGGGGG | -0.19 kcal/mol |
| ATGTACACGTGTGGTG | 0.09 kcal/mol |
| AATGACACGTGAAGAT | 0.35 kcal/mol |
| ATTTGCACGTGATTGA | 0.07 kcal/mol |
| TAAGGCACGTGTGGTG | -0.07 kcal/mol |
| CATGTCACGTGGAGTT | 0.14 kcal/mol |
| GAGCTCACGTGAAGGT | 0.37 kcal/mol |
| AGTAGCACGTGAGAGT | 0.17 kcal/mol |
| GTGCACACGTGGATGG | 0.04 kcal/mol |
| TAGGTCACGTGTTAGA | 0.11 kcal/mol |
| ACGGACACGTGTAGGT | 0 kcal/mol |
| AGAATCACGTGTTAGG | 0.17 kcal/mol |
| AGTTTCACGTGTGGAG | 0.26 kcal/mol |
| TTAGGCACGTGGGGAG | -0.21 kcal/mol |
| ATTATCACGTGTTCGA | 0.17 kcal/mol |
| GGTATCACGTGCTGTA | 0.13 kcal/mol |
| AGTCGCACGTGCGTTG | 0.01 kcal/mol |
| CGGTTCACGTGCGATG | 0.31 kcal/mol |
| TTGCGCACGTGGATGG | -0.07 kcal/mol |
| CGTGGCACGTGCCGGT | -0.31 kcal/mol |
| AAAATCACGTGGTGTG | 0.07 kcal/mol |

| Sequence | relative binding free energy |
| --- | --- |
| TTCTCCACGTGGTGTG | 0.07 kcal/mol |
| CAAGGCACGTGGTTTA | -0.14 kcal/mol |
| AGTTACACGTGCTAGG | 0.1 kcal/mol |
| TGAACCACGTGGAGTG | 0.14 kcal/mol |
| AGAGCCACGTGAGTGG | 0.18 kcal/mol |
| TATTGCACGTGTATAA | 0 kcal/mol |
| GCTGGCACGTGGGGCG | -0.24 kcal/mol |
| ATTAACACGTGCAGGG | -0.04 kcal/mol |
| GAAGGCACGTGAGGAT | 0.2 kcal/mol |
| TAAGGCACGTGTAGCT | -0.04 kcal/mol |
| GTCCTCACGTGGGTGG | 0.18 kcal/mol |
| GGTAGCACGTGGCGCG | -0.09 kcal/mol |
| TTAGGCACGTGCATAT | -0.24 kcal/mol |
| GTAGACACGTGTGGTT | 0.18 kcal/mol |
| TCATTCACGTGAGGCG | 0.55 kcal/mol |
| ATTGCCACGTGTGTGT | -0.21 kcal/mol |
| AGAGCCACGTGGTTGG | -0.16 kcal/mol |
| TTTGTCACGTGGCTAA | -0.02 kcal/mol |
| GGTTTCACGTGATACT | 0.18 kcal/mol |
| AAAGTCACGTGTTTTA | 0.06 kcal/mol |
| CTGTGCACGTGAGTGA | 0.24 kcal/mol |
| ATGAGCACGTGGTAAT | -0.16 kcal/mol |
| TTCTGCACGTGTATTG | 0.04 kcal/mol |

| Sequence | relative binding free energy |
| --- | --- |
| TGAAGCACGTGCGGCG | -0.06 kcal/mol |
| AGTTGCACGTGTTCAT | -0.03 kcal/mol |
| CGTGGCACGTGCGAGT | -0.15 kcal/mol |
| TGTAACACGTGATAGA | 0.13 kcal/mol |
| TGGATCACGTGAGCGG | 0.32 kcal/mol |
| GTGAGCACGTGAATTT | 0.33 kcal/mol |
| GGACGCACGTGGAGGG | -0.09 kcal/mol |
| GGTGGCACGTGGGATA | -0.03 kcal/mol |
| TATTGCACGTGGGGCT | -0.22 kcal/mol |
| GGGACCACGTGGAAGG | 0.1 kcal/mol |
| AAAGTCACGTGTTTGT | -0.01 kcal/mol |
| GAAATCACGTGGTGGA | 0.18 kcal/mol |
| GCGGGCACGTGGTAGA | -0.04 kcal/mol |
| GGTTGCACGTGTTCAA | 0.08 kcal/mol |
| ACAGGCACGTGTTGGT | 0.03 kcal/mol |
| GGAAACACGTGGATGG | -0.01 kcal/mol |
| TGTTACACGTGGGGGG | -0.03 kcal/mol |
| CTTATCACGTGTGCGG | 0.11 kcal/mol |
| GGGGTCACGTGGTTGT | 0.22 kcal/mol |
| GGGGTCACGTGAGTAG | 0.26 kcal/mol |
| AAGGACACGTGTGTGA | 0.1 kcal/mol |
| TTGGCCACGTGAGGCA | 0.33 kcal/mol |
| GTAGCCACGTGTGGAG | -0.05 kcal/mol |

| Sequence | relative binding free energy |
| --- | --- |
| CTAGTCACGTGGTGTT | 0 kcal/mol |
| ATGGACACGTGGATAG | -0.03 kcal/mol |
| TAATGCACGTGGTAGT | -0.13 kcal/mol |
| TTCGTCACGTGTAGAA | 0.21 kcal/mol |
| TGGTTCACGTGTTGAC | 0.15 kcal/mol |
| TTTGGCACGTGGATCA | -0.07 kcal/mol |
| AGCGACACGTGAAGGG | 0.24 kcal/mol |
| TATTACACGTGGGCAT | -0.07 kcal/mol |
| TTAAACACGTGAATTT | 0.22 kcal/mol |
| GGATGCACGTGTAATA | 0.07 kcal/mol |
| GAAGGCACGTGGGTTT | -0.15 kcal/mol |
| TTCTTCACGTGCGGGG | 0.15 kcal/mol |
| GGAATCACGTGGGGCG | 0.13 kcal/mol |
| GTATTCACGTGTCTGG | 0.37 kcal/mol |
| TGGGTCACGTGTCTTT | 0.21 kcal/mol |
| TGAGACACGTGGTGTG | -0.06 kcal/mol |
| GTAGTCACGTGACAGT | 0.19 kcal/mol |
| TAATTCACGTGGAGCG | 0.38 kcal/mol |
| CTTAGCACGTGAAAGT | 0.31 kcal/mol |
| TTGGCCACGTGTATTG | -0.04 kcal/mol |
| TCTTACACGTGCTGTG | 0.21 kcal/mol |
| TTATTCACGTGATTTT | 0.34 kcal/mol |
| GTGAACACGTGAGAGT | 0.2 kcal/mol |
